# US6410566B1, “Cyclic amine derivatives and their use as drugs” (Teijin Limited, priority 2000, dated 2002)
# Some results were stated once for a whole list of compounds, not compound by compound. For at least one compound, name, drawing or mass did not settle the structure.
# Biological target: T1, binding of human MIP-1α to THP-1 cells (Homo sapiens, UniProt P32246)
# T1 construct: endogenous in cells; host or cells: THP-1 (human monocytic leukemia cell line), whole cells
# T1 sequence (P32246 1-355): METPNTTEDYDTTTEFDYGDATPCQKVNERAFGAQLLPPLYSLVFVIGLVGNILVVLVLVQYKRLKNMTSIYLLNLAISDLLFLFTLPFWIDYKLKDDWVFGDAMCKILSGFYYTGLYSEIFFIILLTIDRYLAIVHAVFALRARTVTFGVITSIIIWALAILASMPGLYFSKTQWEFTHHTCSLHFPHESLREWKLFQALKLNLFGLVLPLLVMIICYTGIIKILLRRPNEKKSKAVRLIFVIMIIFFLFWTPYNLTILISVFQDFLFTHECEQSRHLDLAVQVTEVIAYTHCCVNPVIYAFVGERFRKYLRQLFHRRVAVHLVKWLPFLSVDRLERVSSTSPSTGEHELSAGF
# Experiment: Inhibition of MIP-1α binding to THP-1 cells
# Conditions: at 2 μM
row,SMILES,inhibition of MIP-1α binding to THP-1 cells
1,CCOc1cccc(C(=O)N[C@H](CCC(=O)OC)C(=O)NCC2CCN(Cc3ccc(Cl)cc3)CC2)c1 [compound 2104],> 80%

# Same assay, conditions: at 10 μM
row,SMILES,inhibition of MIP-1α binding to THP-1 cells
1,COc1cscc1C(=O)N1CCCC1C(=O)NCC1CCN(Cc2ccc(Cl)cc2)CC1 (stereo not drawn) [compound 742],20-50%
2,CC(NC(=O)c1ccccc1)C(=O)NCC1CCCN1Cc1ccc(Cl)cc1 (stereo not drawn) [compound 342],20-50%
3,O=C(CNC(=O)c1cccc(C(F)(F)F)c1)NCC1CCN(C(c2ccccc2)c2ccccc2)CC1 [compound 901],20-50%
4,CC(NC(=O)c1ccc(N(C)C)cc1)C(=O)NCC1CCN(Cc2ccc(Cl)cc2)CC1 (stereo not drawn) [compound 591],20-50%
5,O=C(NCC1CCN(Cc2ccc(Cl)cc2)CC1)C1CCCN1C(=O)c1ccc([N+](=O)[O-])o1 (stereo not drawn) [compound 717],20-50%
6,COc1cc(C(=O)N[C@H](C)C(=O)NCC2CCN(Cc3ccc(Cl)cc3)CC2)cc(OC)c1OC [compound 1034],> 80%
7,Cc1oc(-c2ccccc2)cc1C(=O)NC(C)(C)C(=O)NCC1CCN(Cc2ccc(Cl)cc2)CC1 [compound 776],20-50%
8,CC(C)C(NC(=O)c1cccn1C)C(=O)NCC1CCN(Cc2ccc(Cl)cc2)CC1 (stereo not drawn) [compound 669],20-50%
9,CC(C)C(NC(=O)c1ccc(C(C)(C)C)cc1)C(=O)NCC1CCN(Cc2ccc(Cl)cc2)CC1 (stereo not drawn) [compound 644],20-50%
10,COc1cc(OC)cc(C(=O)NC(C)(C)C(=O)NCC2CCN(Cc3ccc(Cl)cc3)CC2)c1 [compound 785],20-50%
11,CC(C)(NC(=O)c1cc2ccccc2[nH]1)C(=O)NCC1CCN(Cc2ccc(Cl)cc2)CC1 [compound 781],20-50%
12,O=C(CNC(=O)c1cccc(C(F)(F)F)c1)NCC1CCN(Cc2cccc3c2OCO3)CC1 [compound 880],20-50%
13,COc1cc(OC)cc(C(=O)NC(CCC(N)=O)C(=O)NCC2CCN(Cc3ccc(Cl)cc3)CC2)c1 (stereo not drawn) [compound 1012],> 80%
14,O=C(CCCC(=O)NC1CCCN(Cc2ccc(Cl)cc2)C1)Nc1cccc(Cl)c1 (racemic) [compound 375],20-50%
15,CC(C)C(NC(=O)c1ccc(N(C)C)cc1)C(=O)NCC1CCN(Cc2ccc(Cl)cc2)CC1 (stereo not drawn) [compound 639],20-50%
16,CC(C)C(NC(=O)c1cccc(C(=O)c2ccccc2)c1)C(=O)NCC1CCN(Cc2ccc(Cl)cc2)CC1 (stereo not drawn) [compound 650],> 80%
17,O=C(CNC(=O)OCc1ccccc1)NC1CCCN(Cc2ccc(Cl)cc2)C1 (racemic) [compound 382],20-50%
18,CCOc1cc(C(=O)N[C@H](C)C(=O)NCC2CCN(Cc3ccc(Cl)cc3)CC2)cc(OCC)c1OCC [compound 1036],> 80%
19,O=C(CCCC(=O)NC1CCN(Cc2ccc(Cl)cc2)C1)Nc1ccccc1 (stereo not drawn) [compound 225],20-50%
20,O=C(NCC1CCN(Cc2ccc(Cl)cc2)CC1)C1CCCN1C(=O)c1cccc([N+](=O)[O-])c1 (stereo not drawn) [compound 729],20-50%
21,COc1ccc(OC)c(CN2CCC(CNC(=O)CNC(=O)c3cccc(C(F)(F)F)c3)CC2)c1 [compound 903],20-50%

# The remaining lines, values ahead:
row,inhibition of MIP-1α binding to THP-1 cells,SMILES
1,> 80%,O=C(CNC(=O)c1ccc(Br)c([N+](=O)[O-])c1)NCC1CCN(Cc2ccc(Cl)cc2)CC1 [compound 505]
2,> 80%,CCc1cccc(C(=O)N[C@@H](C)C(=O)NCC2CCN(Cc3ccc(Cl)cc3)CC2)c1 [compound 1023]
3,> 80%,CCOc1cccc(C(=O)N2CCCC2C(=O)NCC2CCN(Cc3ccc(Cl)cc3)CC2)c1 (stereo not drawn) [compound 694]
4,20-50%,COCC(NC(=O)c1ccc(Cl)c([N+](=O)[O-])c1)C(=O)NCC1CCN(Cc2ccc(Cl)cc2)CC1 (stereo not drawn) [compound 821]
5,> 80%,CCOc1cccc(C(=O)NC(CO)C(=O)NCC2CCN(Cc3ccc(Cl)cc3)CC2)c1 (stereo not drawn) [compound 757]
6,> 80%,CC(C)CC(NC(=O)c1ccccc1)C(=O)NCC1CCN(Cc2ccc(Cl)cc2)CC1 (stereo not drawn) [compound 686]
7,20-50%,Cc1cccc(C(=O)NCCC(=O)NC2CCN(Cc3ccc(Cl)cc3)C2)c1 (stereo not drawn) [compound 120]
8,> 80%,CCOc1cccc(C(=O)N[C@H](C)C(=O)NCC2CCN(Cc3ccc(Cl)cc3)CC2)c1 [compound 1039]
9,> 80%,COc1cc(C(=O)NCC(=O)NCC2CCN(Cc3ccc(Cl)cc3)CC2)cc(OC)c1OC [compound 464]
10,20-50%,O=C(CNC(=O)c1cccnc1)NCC1CCCN1Cc1ccc(Cl)cc1 (racemic) [compound 333]
11,> 80%,O=C(CNC(=O)c1ccoc1)NCC1CCN(Cc2ccc(Cl)cc2)CC1 [compound 526]
12,> 80%,CC(NC(=O)c1cccc(OC(F)(F)F)c1)C(=O)NCC1CCN(Cc2ccc(Cl)cc2)CC1 (stereo not drawn) [compound 1040]
13,20-50%,O=C(CNC(=O)c1cccc(C(F)(F)F)c1)NCC1CCN(Cc2ccc(C(F)(F)F)cc2)CC1 [compound 887]
14,20-50%,O=C(CNC(=O)c1ccc(CO)cc1)NCC1CCN(Cc2ccc(Cl)cc2)CC1 [compound 515]
15,20-50%,O=C(CNC(=O)Nc1ccccc1)NCC1CCN(Cc2ccc(Cl)cc2)CC1 [compound 853]
16,> 80%,CCc1cccc(C(=O)NC(CCC(N)=O)C(=O)NCC2CCN(Cc3ccc(Cl)cc3)CC2)c1 (stereo not drawn) [compound 1011]
17,20-50%,O=C(CNC(=O)c1ccc(F)c([N+](=O)[O-])c1)NCC1CCN(Cc2ccc(Cl)cc2)CC1 [compound 502]
18,> 80%,CCOc1cccc(C(=O)NCC(=O)NCC2CCN(Cc3ccc(Cl)cc3)CC2)c1 [compound 490]
19,20-50%,O=C(CNC(=O)c1cccc(C(F)(F)F)c1)NCC1CCN(Cc2ccc(O)cc2)CC1 [compound 888]
20,20-50%,O=C(CNC(=O)c1cccc(C(F)(F)F)c1)NCC1CCN(Cc2ccc(Cl)cc2[N+](=O)[O-])CC1 [compound 932]
21,20-50%,O=C(NC1(C(=O)NCC2CCN(Cc3ccc(Cl)cc3)CC2)CC1)c1ccccc1 [compound 786]
22,> 80%,COc1cccc(C(=O)NC(C)C(=O)NCC2CCN(Cc3ccc(Cl)cc3)CC2)c1 (stereo not drawn) [compound 601]
23,20-50%,O=C(CNC(=O)c1cccc(OC(F)(F)F)c1)NC1CCN(Cc2ccc(Cl)cc2)C1 (stereo not drawn) [compound 47]
24,20-50%,CC(NC(=O)c1cc2ccccc2[nH]1)C(=O)NCC1CCN(Cc2ccc(Cl)cc2)CC1 (stereo not drawn) [compound 579]
25,> 80%,COc1cccc(C(=O)NC(C(=O)NCC2CCN(Cc3ccc(Cl)cc3)CC2)C(C)C)c1 (stereo not drawn) [compound 623]
26,20-50%,CCOc1ccc(C(=O)NC(CC(C)C)C(=O)NCC2CCN(Cc3ccc(Cl)cc3)CC2)cc1OCC (stereo not drawn) [compound 1006]
